# Source: PubChem BioAssay AID504845 (National Center for Advancing Translational Sciences (NCATS), 2011)
# The whole screen tested about 390,000 compounds, of which about 150 (0.038%) were called active. The shares of active, inactive and inconclusive entries below differ from those in the screen. The call rests on the fitted dose curve; in most records, active means well fitted inhibition curve with a large enough effect; inconclusive means small, poorly fitted or top-dose-only effect; inactive means no such curve, though single readings can be large or run the other way. Potencies of inconclusive entries are doubtful fits and often do not repeat. Where a structure was tested more than once in an assay, its records may differ in their call.
# Target: Regulator of G-protein signaling 4 (Homo sapiens) (UniProt P49798)
# UniProt P49798, sequence (P49798 whole entry, looked up): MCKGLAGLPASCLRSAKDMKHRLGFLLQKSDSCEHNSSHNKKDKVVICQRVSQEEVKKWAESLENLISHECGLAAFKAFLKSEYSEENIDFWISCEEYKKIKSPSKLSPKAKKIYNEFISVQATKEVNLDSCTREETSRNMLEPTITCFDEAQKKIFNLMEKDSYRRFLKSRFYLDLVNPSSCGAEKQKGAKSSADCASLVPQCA
# Experiment: Inhibitors of Regulator of G Protein Signaling (RGS) 4: qHTS; further: nearly all actives have a fitted effect of over 75% in size
# Details: Transcreener GDP fluorescence polarization, RGS4-accelerated GTP hydrolysis; series mostly up to 114 µM; activity change, negative = inhibition: at the top concentration
# Outline: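 MLSMR compounds (23 nl, pin-transferred) preincubated 10 min at room temperature with a 500nM (2x) first reagent, then RGS4 at 900nM (2x) plus Transcreener GDP mix added; fluorescence polarization (620/688 nm) read before and after 90 min at 30 °C.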
# On the % scale 0 is the no-effect control and ±100 the full control effect; potency means the concentration at half of the fitted maximal effect; tags describe the fitted curve by direction and shape.
SMILES,Potency,"activity change, negative = inhibition"
CN1C(=O)NC(=O)/C(=C\c2ccc([N+](=O)[O-])o2)C1=O,"inconclusive: 31.6 µM [inhibitor, full curve, poor fit]",–
CCOP(=O)(/C=C(\Cl)c1ccccc1)C(O)c1ccc(F)cc1 (stereo not drawn),"inconclusive: 31.6 µM [inhibitor, full curve, poor fit]",–
O=C(N/N=C/c1ccccc1OC(=O)N1CCOCC1)c1cccs1,"inconclusive: 44.7 µM [inhibitor, partial curve, poor fit]",–
Cc1ccsc1/C=C1\C(=O)NC(=S)N(C)C1=O,"inconclusive: 20 µM [inhibitor, full curve, poor fit]",–
CCCCC[C@@H](/C=C/C=C\C/C=C\C/C=C\CCCC(=O)O)OO,"inconclusive: 18.9 µM [inhibitor, partial curve, poor fit]",–
O=C1C=CC2C3C(=O)N(c4ccccc4)C(=O)C3C1N2Cc1ccccc1 (stereo not drawn),"inconclusive: 28.2 µM [inhibitor, full curve, poor fit]",–
Cn1cccc1/C=C1\C(=O)NC(=O)N(Cc2ccccc2)C1=O,"inconclusive: 56.2 µM [inhibitor, partial curve, poor fit]",–
Oc1cc2c(cc1CN1CCN(c3ccc(F)cc3)CC1)OCO2,–,inactive: -21.4%
CC(C)(C)C(=O)OC1=CN(Cc2ccccc2)S(=O)(=O)c2ccccc21,"inconclusive: 100 µM [inhibitor, single point]",–
COc1ccc(CN2C(=O)NC(=O)/C(=C\c3cc(OC)c(OC)c(OC)c3)C2=O)cc1,"inconclusive: 28.2 µM [inhibitor, full curve, poor fit]",–
COc1cccc(N2C(=O)NC(=O)/C(=C/c3ccc4c(c3)Cc3ccccc3-4)C2=O)c1,"inconclusive: 44.7 µM [inhibitor, partial curve, poor fit]",–
COc1cc2[nH]c(=O)n(-c3ccccc3)c(=O)c2cc1OC,"inconclusive: 89.1 µM [inhibitor, single point]",–
Cc1ccc(/C=C2\C(=O)NC(=O)N(Cc3ccccc3Cl)C2=O)o1,"inconclusive: 20 µM [inhibitor, full curve, poor fit]",–
CC1=CC2OC3CC4OC(=O)C=CC=CC(C(C)O)OCC(O)C5(C)OC5C(=O)OCC2(CC1O)C4(C)C31CO1 (stereo not drawn),–,inactive: -27%
c1ccc(Cn2ccnc2)cc1,–,inactive: -25.6%
CN1/C(=C\C=C2C(=O)NC(=O)NC2=O)C(C)(C)c2ccccc21,–,inactive: -5.63%
N#CC(C#N)=Cc1ccc(O)c(O)c1,active: 18.9 µM,–
Cc1nn(C)cc1-c1cc(C(=O)O)c2ccccc2n1,"inconclusive: 70.8 µM [inhibitor, single point]",–
CNc1ccc2nc3ccccc3[n+](C)c2c1,"inconclusive: 17.8 µM [inhibitor, full curve, poor fit]",–

SMILES,Potency,"activity change, negative = inhibition"
CCOc1ccc(-c2cc(C)n3nc(C(=O)Nc4ccc(C)c(C)c4)cc3n2)cc1,"inconclusive: 17.8 µM [inhibitor, full curve, poor fit]",–
O=C1NC(=O)C(=Cc2ccc(-c3ccc(S(=O)(=O)N4CCOCC4)cc3)o2)C(=O)N1,"inconclusive: 31.6 µM [inhibitor, full curve, poor fit]",–
CSc1ncc(/C=C2/C(=O)NC(=O)N(c3ccc(Cl)cc3)C2=O)cn1,"inconclusive: 50.1 µM [inhibitor, partial curve, poor fit]",–
Cc1cccc(Cn2c(SCc3ccc(C(=O)NC4CCCCC4)cc3)nc3cccnc32)c1,"inconclusive: 35.5 µM [inhibitor, full curve, poor fit]",–
CCN(CC)C(=O)Oc1ccc(OC(=O)N(CC)CC)cc1,"inconclusive: 31.6 µM [inhibitor, full curve, poor fit]",–
COc1ccc(/C=C2/C(=O)N(c3ccccc3)N=C2C)cc1,"inconclusive: 79.4 µM [inhibitor, partial curve, poor fit]",–
C=CCN1C(=O)/C(=C/c2ccc3c(c2)CCCN3CCC)C(=O)NC1=S,"inconclusive: 50.1 µM [inhibitor, partial curve, poor fit]",–
O=C1NC(=O)N(Cc2ccccc2)C(=O)/C1=C/c1cnc(-c2ccccc2)nc1,"inconclusive: 28.2 µM [inhibitor, full curve, poor fit]",–
CC(C)NCC(O)COc1cccc2[nH]ccc12 (stereo not drawn),"inconclusive: 8.44 µM [inhibitor, full curve, poor fit]",–
CCOC(=O)C(NS(=O)(=O)c1ccc(C)cc1)(C(F)(F)F)P(=O)(OCC(C)C)OCC(C)C (stereo not drawn),"inconclusive: 50.1 µM [inhibitor, partial curve, poor fit]",–
O=C1NC(=O)N(c2ccc3c(c2)OCO3)C(=O)/C1=C\c1ccc(-c2ccccc2C(=O)O)o1,"inconclusive: 28.2 µM [inhibitor, full curve, poor fit]",–
COc1ccc(NC2Oc3cc4c(cc3C(c3cc(OC)c(OC)c(OC)c3)C2C)OCO4)cc1 (stereo not drawn),"inconclusive: 89.1 µM [inhibitor, single point]",–
COc1ccc2[nH]c3c(c2c1)CCNC3,"inconclusive: 0.751 µM [inhibitor, full curve, poor fit]",–
COc1ccc(N2C(=O)/C(=C/C=C/c3ccccc3[N+](=O)[O-])C(=O)NC2=S)cc1,"inconclusive: 56.2 µM [inhibitor, partial curve, poor fit]",–
O=C(CCN1CC2CCC(CC2)C1)c1cccs1,–,inactive: -49%
Cc1cccc(N2C(=O)NC(=O)/C(=C\C=C\c3ccco3)C2=O)c1,"inconclusive: 22.4 µM [inhibitor, full curve, poor fit]",–
N=C1/C(=C\c2ccc(OC(=O)c3ccccc3Cl)cc2)C(=O)N=C2SC(N3CCOCC3)=NN12,"inconclusive: 44.7 µM [inhibitor, partial curve, poor fit]",–
Cc1ccc(N2C(=O)CC(=O)NC2=O)cc1Cl,"inconclusive: 89.1 µM [inhibitor, single point]",–
CCOC(=O)c1cc(C)sc1/N=C/C1C(=O)NC(=S)NC1=O,"inconclusive: 50.1 µM [inhibitor, partial curve, poor fit]",–
